Measured values reported in paper PMC6919601, “Identification of Plasmodium dipeptidyl aminopeptidase allosteric inhibitors by high throughput screening” (PLoS ONE, 2019).
About 230 (0.21%) of roughly 110,000 compounds showed an effect of 50% or more. Some of the results follow.

Target: DPAP1 (Plasmodium falciparum, UniProt Q8IIJ9)
Experiment: primary screen, percent inhibition; read by cleavage of a fluorogenic dipeptide substrate; higher = more effect of the substance
Design: species or system P. falciparum D10 trophozoite lysates; single well
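Note: 30 min substrate incubation versus DMSO and 10 µM JCP410 controls.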

Sequence of DPAP1 (Q8IIJ9 whole entry, looked up): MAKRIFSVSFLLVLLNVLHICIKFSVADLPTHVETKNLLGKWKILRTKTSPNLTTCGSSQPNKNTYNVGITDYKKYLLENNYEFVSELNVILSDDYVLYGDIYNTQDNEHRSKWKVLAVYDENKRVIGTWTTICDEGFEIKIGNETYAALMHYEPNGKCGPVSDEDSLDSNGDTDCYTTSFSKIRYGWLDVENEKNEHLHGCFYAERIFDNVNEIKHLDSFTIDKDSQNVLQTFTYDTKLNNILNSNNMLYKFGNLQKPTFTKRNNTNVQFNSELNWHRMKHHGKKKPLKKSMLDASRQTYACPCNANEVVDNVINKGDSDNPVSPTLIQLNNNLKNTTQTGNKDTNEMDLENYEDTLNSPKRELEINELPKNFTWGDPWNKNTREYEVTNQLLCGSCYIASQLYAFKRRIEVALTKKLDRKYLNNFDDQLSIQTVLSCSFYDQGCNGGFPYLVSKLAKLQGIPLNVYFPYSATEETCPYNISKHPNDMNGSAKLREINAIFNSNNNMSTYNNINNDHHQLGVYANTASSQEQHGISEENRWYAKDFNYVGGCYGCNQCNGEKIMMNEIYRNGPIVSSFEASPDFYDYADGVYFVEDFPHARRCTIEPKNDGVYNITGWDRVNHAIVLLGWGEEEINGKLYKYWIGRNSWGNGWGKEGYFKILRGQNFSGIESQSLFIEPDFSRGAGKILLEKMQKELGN

Compound | % Inhibition @ 10 uM
Cc1nc2c(C(=O)NCc3ccco3)cnn2c(O)c1Cl | -3.94%
Nc1nc(COc2ccc3ccccc3c2)cs1 | -1.38%
CCOC(=O)C1=CN(C)C=C(C(=O)OCC)C1c1ccc(OC(F)(F)F)cc1 | -5.05%
OC1CC(c2ccccc2)OC12CCCCC2 (stereo not shown) | 4.12%
COc1ccc(C2=NN(C(=O)CSC3=NCCS3)C(c3ccc(F)cc3)C2)cc1 (stereo not shown) | 0.279%
CC1=C(C(=O)OCCOc2ccccc2)C(c2ccccc2OC(C)C)C2=C(O)CCCC2=N1 (stereo not shown) | 5.94%
Cc1ccccc1CN1CCN(c2ccccn2)CC1 | 3%
COc1ccc(N2C(=O)C3C(c4ccc(C)cc4)OC4(C(=O)c5ccccc5C4=O)C3C2=O)cc1 (stereo not shown) | -2.32%
Cc1nc2ccccc2c(=O)n1-c1cc(C(F)(F)F)ccc1Cl | 1.61%
CN1CCN(Cc2nnc(S)n2-c2ccc3ccccc3c2)CC1 | 4.17%
CCOC(=O)N1CCC(NC(=O)C2CCN(S(=O)(=O)c3cccc4nsnc34)CC2)CC1 | -5.22%
Cc1cc(C)n(CCc2nc3ccccc3[nH]2)n1 | 0.219%
COc1ccc(NS(=O)(=O)c2ccc(OC)c(OC)c2)cc1OC | -5.07%
Cc1ccc(CCNC(=O)c2nnn(-c3cc(C)cc(C)c3)c2N)cc1 | -0.112%
COc1cccc(C2C3=C(O)CC(c4ccccc4)CC3=NC(C)=C2C(=O)Nc2ccccn2)c1 (stereo not shown) | -4.65%
Cc1ccc(-c2cn3c(n2)sc2cc(C(=O)NCC4CCCO4)ccc23)c(C)c1 (stereo not shown) | 4.85%
Oc1c(O)c(CN2CCCCC2)c2ccccc2c1CN1CCCCC1 | -3.5%
CSc1ccc(C2C3=C(O)CCCC3=NC(C)=C2C(=O)N2CCCCC2)cc1 (stereo not shown) | -1.48%
COc1ccc(OC)c(NC(=O)CCCOc2ccc(Cl)cc2Cl)c1 | 0.755%
CCOc1ccc(C2=CC(c3cccc(OC)c3OC)n3ncnc3N2)cc1Cl (stereo not shown) | -1.62%
COc1ccccc1N(CC(=O)N1CCCCCC1)S(C)(=O)=O | 0.755%
Cc1ccc(S(=O)(=O)c2ccccc2)cc1S(=O)(=O)Nc1cccc(C(=O)O)c1 | -0.216%
Cc1cccc2c1CC(C)(C)NC2=C1C(=O)CC(C)(C)CC1=O | -9.11%
C=CCOC(=O)c1cc(-c2ccc(/C=N/n3nnnc3N)o2)ccc1Cl | 13.2%
COc1ccc(NC(=O)CN(c2cccc(Cl)c2)S(=O)(=O)c2ccccc2)cc1OC | -3.39%

Compound | % Inhibition @ 10 uM
Cc1cccc(CSCc2ccc(C(=O)NC(C)C)o2)c1 | -1.79%
NC(=O)c1cc(S(=O)(=O)NCC2CCCO2)cs1 (stereo not shown) | 0.304%
O=C(c1cn(Cc2ccc(F)cc2)c2ccccc12)C1CC1 | -8.42%
CCSc1ncc(Cl)c(C(=O)N(Cc2ccc(Cl)cc2)Cc2ccco2)n1 | 2.19%
Cc1cc(C(=O)CN2CCOCC2)c(C)n1-c1ccc(Cl)c(Cl)c1 | -7.96%
COc1cccc(-c2noc(-c3ccccn3)n2)c1 | -5.21%
CCCc1cc(=O)oc2c3c(ccc12)OCN(Cc1ccc(F)cc1)C3 | 3.81%
Cc1ccc(S(=O)(=O)NCc2ccc(C(=O)N3CCC(Cc4ccccc4)CC3)cc2)cc1 | 0.208%
CC[C@H](NC(=O)[C@H](CS(=O)(=O)Cc1ccccc1OC(F)F)/N=C(\C)NS(=O)(=O)c1cccnc1)C(=O)c1nc2ccccc2o1 | -3.14%
CCOc1ccc(-c2cc(N)c(C(=O)OC)s2)cc1 | 1.22%
CCOc1ccc(/C=C/C2=CC(C)(C)NC(S)=N2)cc1 | 1.64%
C/C(=C(/NC(=O)c1ccccc1)C(=O)O)c1ccc(Cl)cc1 | 2.5%
O=C(CCc1nc(-c2ccc(Cl)cc2)no1)Nc1cccnc1 | 0.366%
O=C1CCC(=O)N1CCOP1(=O)COc2ccccc2OC1 | 2.31%
O=P(O)(O)Oc1ccccc1P(=O)(c1ccccc1)c1ccccc1 | -0.178%
O=C(Nc1cccnc1)c1cc(-c2ccccc2O)on1 | -3.12%
CCOc1ccc(C2C(C#N)=C(N)Oc3[nH]nc(-c4ccccc4)c32)c(OCC)c1 (stereo not shown) | 7.1%
CCCCN(C)C(=O)C1CCN(c2nnc(C)c3c(C)n(-c4ccc(C)cc4)nc23)CC1 | 8%
COc1ccc(C2SCC(=O)N2CCN2CCCCC2)cc1 (stereo not shown) | -1.3%
COc1cc(CN2CCOCC2)ccc1O | 1.62%
CCOc1cccc(C2NC(=O)NC(C)=C2C(=O)OCC(C)C)c1 (stereo not shown) | 15.8%
CC1(C)N=C(c2ccc(Cl)cc2)C(=S)N1 | 3.5%
COc1ccc(-c2noc(C34CC5CC(CC(C5)C3)C4)n2)cc1 | -3.21%
CCN1C(=O)N/C(=C/c2ccc(-c3ccccc3)o2)C1=O | -4.21%
Nc1c(C(=O)Nc2ccc(F)cc2)sc2nc(-c3ccc4c(c3)OCO4)ccc12 | -1.57%

Compound | % Inhibition @ 10 uM
CC1(C)CC(O)=C(C(=S)Nc2ccccc2)/C(=N/CCN2CCOCC2)C1 | 4.67%
C=CCN(CC=C)C(=O)Nc1ccccc1 | 6.18%
CCOC(=O)N1CCN(C(=O)c2nn(C)c3c2COc2ccccc2-3)CC1 | 3.3%
CC(C)C[C@H](NC(=O)c1ccc(Br)o1)C(=O)NCC#N | -4.72%
Cn1nccc1C(=O)Nc1ccc(Cl)cc1Cl | 0.962%
Cc1nc(Nc2ccc(Cl)c(Cl)c2)nc(Nc2ccc(Cl)c(Cl)c2)c1[N+](=O)[O-] | -1.05%
Cc1ccccc1C(=O)NCC(=O)c1ccccc1 | 1.27%
COc1ccc(O)c(C2=NN3C(C2)c2cccc(OC)c2OC3c2ccccc2C)c1 (stereo not shown) | -5.36%
O=C(CCc1nc2ccccc2[nH]1)NCc1ccc(F)cc1Cl | -4.03%
O=C(c1ccc2nc(-c3cccs3)c(-c3cccs3)nc2c1)N1CCC2(CC1)OCCO2 | 4.22%
COc1cc(OC)c(OC)cc1CN1CCN(Cc2ccc(SC)cc2)CC1 | -2.16%
O=C(NCc1ccc(Cl)cc1Cl)C(=O)NCc1ccc(Cl)cc1Cl | -4.01%
CCN(CC)C(=O)CSc1nc(O)cc(=O)n1C | -1.64%
CCCCOc1ccc(C(C)NC(=O)C2CCC(CNS(=O)(=O)c3ccccc3)CC2)cc1 (stereo not shown) | 0.718%
Oc1oc(-c2cccc3ccccc23)nc1/C=N/c1cccnc1Cl | -3.26%
O=C1CCCc2c1[nH]c1ccc(CN3CCCCC3)cc21 | 5.03%
Clc1ccccc1CNCc1ccc(Br)cc1 | 2.38%
O=C1c2cccc3c2N(CCC3)C(=O)C1(F)c1ccccc1 (stereo not shown) | -2.88%
O=C(Nc1ccc(Cl)cc1)NC(c1ccccc1)c1ccccc1 | 1.44%
O=C1Nc2c(c(=O)[nH]c(=O)n2Cc2ccccc2)C1(Nc1ncccn1)C(F)(F)F (stereo not shown) | 3.66%
O=C(NCc1ccccc1Cl)c1cc2c(s1)-c1ccccc1OC2 | -8.58%
NCCNC(=O)c1c(O)oc2ccccc2c1=O | 0.00178%
Cc1nn(Cc2ccc(C(=O)Nc3ccc(Br)c4cccnc34)o2)c(C)c1Cl | -1.08%
COc1cc(/C=C2\C(=N)N3N=C(S(C)(=O)=O)SC3=NC2=O)ccc1OCc1ccccc1F | -3.39%
Cc1cc(Cl)ccc1N(CC(=O)Nc1ccc2ccccc2c1)S(C)(=O)=O | -2.88%

Compound | % Inhibition @ 10 uM
O=C(c1ccco1)N1CCN(c2ncnc3c2nc2n3CCCCC2)CC1 | 2.75%
CC/N=C(/Nc1cc(-c2ccc(OC)cc2OC)[nH]n1)SC | -2.28%
O=C(NCCc1ccc(Cl)cc1)c1c(O)nc2c(c1O)CCCC2 | 2.8%
CC(C(=O)NCCCc1ccccc1)n1ccc2cc(S(=O)(=O)N3CCCC3)ccc21 (stereo not shown) | -7.13%
CSc1ccc2nc(N3CCN(c4ccccc4F)CC3)cc(C)c2c1 | -5.16%
NC(=O)COc1ccc(-c2noc(/C=C/c3ccccc3)n2)cc1 | -4%
COc1cc(OC)cc(C(=O)Nc2ccccc2C(N)=O)c1 | 4.11%
CC(C)C[C@H](NC(C(=O)N1CCOCC1)c1ccc(-c2ccc(S(C)(=O)=O)cc2)cc1)C(=O)NCC#N (stereo partly shown) | -4.72%
COc1ccc(C2=NN(c3cc(Cl)ccc3Cl)C(c3ccc(F)cc3)C2)cc1 (stereo not shown) | 2.78%
Cc1cccn2c(=O)c(/C=C(\C#N)C(=O)NCCCOC(C)C)c(Oc3ccc(Cl)cc3)nc12 | 5.21%
COc1ccc(C(=O)OCCN2CCN(c3ncc(C(F)(F)F)cc3Cl)CC2)cc1OC | -2.28%
Cn1c(=O)c2c(nc(CN3CCCCC3)n2Cc2cccc(Cl)c2)n(C)c1=O | 1.02%
O=C(Nc1nc2nc(-c3ccccc3)cc(O)n2n1)c1cccnc1 | -4.91%
CCCCN1C(=O)C(NC(=O)c2ccccc2)(C(F)(F)F)C2=C1CC(C)(C)CC2=O (stereo not shown) | 1.02%
Cc1ccc(OCC(=O)Nc2ccccc2)c(C)c1 | 78%
CC1=CCC2C(=O)N(c3cccc(Cl)c3)C(=O)C2C1 (stereo not shown) | 0.313%
CCc1ccc(Oc2nc3ccccn3c(=O)c2/C=C(\C#N)C(=O)NCCOC)cc1 | -0.828%
Cc1cc(/C=C2/NC(=O)N(Cc3ccccc3F)C2=O)c(C)n1-c1cccnc1 | -4.56%
Clc1nc(N2CCc3ccccc3C2)nc(N2CCc3ccccc3C2)n1 | -9.24%
Nc1nonc1-n1nnc(C(=O)O)c1CSc1nc2ccccc2[nH]1 | 1.62%
CC(C)(C)c1ccc(C(=O)N2CCN(c3ccc(F)cc3)CC2)cc1 | 1.05%
O=S(=O)(c1ccc(-c2cc(C(F)(F)F)no2)s1)N1CCCN(Cc2ccc(F)cc2)C1 | -2.86%
